# From the RNAGym collection of RNA variant scans (doi:10.7554/elife.90254)
# The source gives no read counts; variants with many changes may rest on few reads.
# B1: LINE1-mini (parent)
# chain: GGCAGAGCUCAACACAGCGUGGCAAAGUGGCUGUGGCUAGACUGCC
# Variants of: B1
# Assay: self-cleavage, relative activity (ratio to wild type); higher = more cleavage; in vitro, sequencing; the parent is a self-cleaving ribozyme
row,Variant,self-cleavage
1,GGCAGAGCUCAACACAGAGGGGCAAAGUGGUUGUGGCUAGACUGCU,0
2,GGCAGAGCUCAACACAGAGGGCCAAAGUGGCUGUCGCUAGACUGCC,0.05
3,GGCAGAGCUCAACACAGAGGGUCAAAGUGGCUGUGGCUAGACUGCC,0.11
4,GGCAGAGCUCAACACAGAGGGGCAAAGCGGCUGUGGCUAGACUGCC,0.33
5,GGCAGAGCUCAACACAGAGUGGCAAAGCGGCAGUGGCUAGACUGCU,0.04
6,GGCAGAGCUCAACACAGAGUGGCAAAGGGGCUGUGGCUAGACGGCG,0.02
7,GGCAGAGCUCAACACAGAGUGGCAAAGUGGCAGUGGCUAGACUGUC,0
8,GGCAGAGCUCAACACAGAGUGGCAAAGUGGCGGUGGCUAGAUUGUC,0.01
9,GGCAGAGCUCAACACAGAGUGGCAAAGUGGCUGCGGUUAGACUGCC,0
10,GGCAGAGCUCAACACAGAGUGGCAAAGUGGCUGCGGCUAGACUGAC,0.02
11,GGCAGAGCUCAACACAGAGUGGCAAAGUGGCUGUGGCUAGACCGGC,0.03
12,GGCAGAGCUCAACACAGGGUGGCCACGUGGUGGUGGCUAGACUGCC,0.01
13,GGCAGAGCUCAACACAGGGUGGCCAAGUGGUUGUGGAUAGACUGCC,0.02
14,GGCAGAGCUCAACACAGGGUGGCGAAGUGGCUGUGGAUAGACUUCC,0.14
15,GGCAGAGCUCAACACAGGGUGGCACAGUGGCUGUGGGUAGUCUGCC,0.01
16,GGCAGAGCUCAACACAGGGUGGCAGAAUGACUGUGCCUAGACUGCC,0.04
17,GGCAGAGCUCAACACAGGGUGGCAGAGUGGCUUUGGCUAGACUGCC,0.02
18,GGCAGAGCUCAACACAGGGUGGCAACGUGGCUGUGUCUAGAGUGCC,0.01
19,GGCAGAGCUCAACACAGGGUGGCAAGUUGGCCGUGGCUAGACUGCC,0.02

row,Variant,self-cleavage
1,GGCAGAGCUCAACACAGGGUGGCAAGGUGGCUGUGACUAGACUGCC,0.04
2,GGCAGAGCUCAACACAGGGUGGCAAUGUGGCUGUGGCUAGACUGAU,0.03
3,GGCAGAGCUCAACACAGGGUGGAAAAGUAGCUGUGGCUAGACUGGC,0.21
4,GGCAGAGCUCAACACAGGGUGGAAAAGUGACUGUGGCUAGACUGCC,1.2
5,GGCAGAGCUCAACACAGGGUGGGAAAGUGGCUGUGGCUAGCCUGCC,0.02
6,GGCAGAGCUCAACACAGGGUGGCAAAGUGGAUGUUGCUAGACUGCA,0.04
7,GGCAGAGCUCAACACAGGGUGGCAAAGUGGCUGUGGGUGGACUGCC,0.03
8,GGCAGAGCUCAACACAGGGUGGCAAAGUGGCUGUGGUUAGCCUGCC,0.03
9,GGCAGAGCUCAACACAGGAUGGCAAAGUCGCUGUGGCUAGACUGCC,0.85
10,GGCAGAGCUCAACACAGGUUGGCAAAGUGGCUGUGGAUAGACUGCC,0.04
11,GGCAGAGCUCAACACAGGUUCGCAAAGUGGCUGUGGCUGGAAUGCC,0.06
12,GGCAGAGCUCAACACAGGUUGGCAAAGUCGCUGUGGCUAGACUGCC,0.12
13,GGCAGAGCUCAACACAGGGUAGCAAAGUGGCUAUGGCUAGACUGCC,0.03
14,GGCAGAGCUCAACACAGGGUCGUAAAGUGGCUGUGGCGAGACUGCC,0.03
15,GGCAGAGCUCAACACAGGGUCGCAAAGUGGCUAUGGCUAGACUGCC,0.02
16,GGCAGAGCUCAACACAGGGUCGCAAAGUGGCUGUGGCUAUACUGUC,0.11
17,GGCAGAGCUCAACACAGGGUCGCAAAGUGGCUGUGGCUAGACAGCC,0.02
18,GGCAGAGCUCAACACAGGGUUGCGAAGUGGCUGUGGCUAGACUGCC,0.39
19,GGCAGAGCUCAACACAGGGUUGCAGAGUGGCUGUGGCUAGUCAGCA,0.02

row,Variant,self-cleavage
1,GGCAGAGCUCAACACAGGGUUGCAAAGCGGCUGUGGCGCGACUGCC,0.01
2,GGCAGAGCUCAACACAGGGUGACAAAGUGGCUGUAGCUAGACUGCC,0.04
3,GGCAGAGCUCAACACAGGGUGCCAAACUGGCUGUGACUAGACUGCC,0.17
4,GGCAGAGCUCAACACAGGGUGUCAAACUGGCUGUGGCUAGACUGUG,0.06
5,GGCAGAGCUCAACACAGGGUGUCAAAGUUGCUGUGGCUAUUCUGCC,0.23
6,GGCAGAGCUCAACACAGGGUGGCAAAGUUGCUGUGGCUACACUGCC,0.01
7,GGCAGAGCUCAACACAGGGUGGCAAAGUGUCUGUGGUUAGACUGCC,0.07
8,GGCAGAGCUCAACACAGGGUGGCAAAGUGGCUGUGACUGGACUGCC,0.07
9,GGCAGAGCUCAACACAGGGUGGCAAAGUGGCUGUGACCAGACUGCC,0.04
10,GGCAGAGCUCAACACAGGGUGGCAAAGUGGCUGUGUCCAGACGGCC,0
11,GGCAGAGCUCAACACAGGGAGGCAGAGUGGCUGUGGCUAGACUGCC,0.04
12,GGCAGAGCUCAACACAGGGAGGCAAAGUGGCUGUGGGUAGACUGCG,0.02
13,GGCAGAGCUCAACACAGGGAGGCAAAGUGGCUGUGGUUAGACUGCC,0.04
14,GGCAGAGCUCAACACAGGGCGGCAAACUGGCUGUGGCUAGACUGCC,0.07
15,GGCAGAGCUCAACACAGGGCGGCAAAGUGGCUGUGUCUAGACUGCC,0.04
16,GGCAGAGCUCAACACAGGGGGGCAAAAUGGCUGUGGCUAGACUGCC,0.03
17,GGCAGAGCUCAACACAGGGGGGCAAAGUGGCUGUGGCUAUACUGCC,0.01
18,GGCAGAGCUCAACACAGGGGGGCAAAGUGGCUGUGGCGAGACUGCC,0
